# B1: recombinant Cse4 point mutant R210A (natural protein)
# chain: not shown
# B2: recombinant Cse4 point mutant H207A (natural protein)
# chain: not shown
# B3: recombinant Cse4 point mutant T212A (natural protein)
# chain: not shown
# B4: recombinant Cse4 point mutant L220A (natural protein)
# chain: not shown
# B5: recombinant Cse4 point mutant D217A (natural protein)
# chain: not shown
# How the values were obtained:
# SEC = molecular target: the molecule itself; experiment: SEC
# [1] = molecular target: recombinant yeast histone H4 (S. cerevisiae, UniProt P02309); experiment: SEC
Binder,binding result (SEC),binding result [1]
B1,binds,binds
B2,binds,binds
B3,binds,binds
B4,binds,binds
B5,binds,binds

# From publication PMC2757638 (Molecular cell, 2009)
